{"source": "PubChem BioAssay AID485294", "about": "(National Center for Advancing Translational Sciences (NCATS), 2010)", "note": "The campaign covered roughly 370,000 compounds. About 150 (0.041%) were called active. This list was built around the results that the source calls inconclusive (neither active nor inactive); the mix of calls is not that of the screen. Calls follow the shape of the dose curve; as a rule, active = well fitted inhibition curve with a large enough effect; inconclusive = small, poorly fitted or top-dose-only effect; inactive = flat fitted curve, though single readings scatter. Potencies of inconclusive entries are left out as doubtful fits.", "data": [{"target": "Beta-lactamase (Escherichia coli (strain K12)) (UniProt P00811)", "sequence (P00811 whole entry, looked up)": "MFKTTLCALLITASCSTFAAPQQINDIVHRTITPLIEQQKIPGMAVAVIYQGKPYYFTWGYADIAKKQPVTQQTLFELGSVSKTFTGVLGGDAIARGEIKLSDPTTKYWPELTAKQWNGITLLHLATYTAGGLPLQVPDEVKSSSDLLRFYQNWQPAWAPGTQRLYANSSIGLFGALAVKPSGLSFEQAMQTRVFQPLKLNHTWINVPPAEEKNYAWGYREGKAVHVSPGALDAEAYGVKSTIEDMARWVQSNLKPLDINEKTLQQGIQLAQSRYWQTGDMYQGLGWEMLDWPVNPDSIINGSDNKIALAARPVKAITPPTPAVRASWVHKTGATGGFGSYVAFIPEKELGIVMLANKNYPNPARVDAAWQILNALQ", "experiment": "qHTS Inhibitors of AmpC Beta-Lactamase (assay with detergent); also: nearly all actives have a fitted effect of over 25% in size; also: potency is read from the fitted curve at half-maximal effect; tags tell the direction and shape of the fitted curve", "conditions": "AmpC hydrolysis of nitrocefin, absorbance 480 nm, 0.01% Triton; series mostly up to 114 µM", "outline": "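AmpC (5.3 nM in the dispensed reagent) in 20 mM phosphate pH 7.0 with 0.01% (detergent screen) or 0.0001% Triton X-100 was preincubated with compounds for 15 min at room temperature. Nitrocefin was then added from an 800 uM solution, and hydrolysis was followed at 480 nm.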", "values": [{"compound": "COC(=O)CN1C(=O)CC(C)(C)S(=O)c2ccccc21", "note": "(centres undefined)", "Potency": "inconclusive [inhibitor, full curve]"}, {"compound": "CC1(C)CC(=O)C(C2C3=C(CC(C)(C)CC3=O)Oc3ccc4ccccc4c32)C(=O)C1", "note": "(centres undefined)", "Potency": "inactive"}, {"compound": "COC(=O)CCC(C)N1CCC(Oc2ccc(C(=O)NCc3ccccn3)cc2)CC1", "note": "(centres undefined)", "Potency": "inconclusive [inhibitor, full curve, poor fit]"}, {"compound": "COc1nc(Nc2cccc(C)c2)nc(N2CCCCC2)n1", "Potency": "inconclusive [inhibitor, single point]"}, {"compound": "COc1ccc(C2C(C(N)=O)=C(C)Nc3nc(-c4cccc(Cl)c4)nn32)cc1OC", "note": "(centres undefined)", "Potency": "inconclusive [inhibitor, partial curve, poor fit]"}, {"compound": "COc1ccc(S(=O)(=O)NCCc2ccncc2)cc1", "Potency": "inconclusive [inhibitor, partial curve, poor fit]"}, {"compound": "O=C(O)C1C2C=CC(C2)C1C(=O)NCc1ccccn1", "note": "(centres undefined)", "Potency": "inconclusive [inhibitor, full curve, poor fit]"}, {"compound": "COc1ccc(C(=O)NC2CCCc3c2cnn3-c2cccc(C)c2C)c(OC)n1", "note": "(centres undefined)", "Potency": "inconclusive [inhibitor, full curve, poor fit]"}, {"compound": "COC(=O)c1ccccc1NC(=O)CN(C)Cc1ccccc1", "Potency": "inconclusive [inhibitor, single point]"}, {"compound": "COc1ccccc1NNC(=O)C(O)(c1ccccc1OC)c1ccccc1OC", "Potency": "inconclusive [inhibitor, full curve, poor fit]"}, {"compound": "Cc1cccc(N2CCN(C(=O)Cc3ccc(-n4c(=O)[nH]c5ccsc5c4=O)cc3)CC2)c1C", "Potency": "inconclusive [inhibitor, partial curve, poor fit]"}, {"compound": "O=S(=O)(c1ccc(Cl)cc1)N1CCC(N2CCCCCC2)CC1", "Potency": "inconclusive [inhibitor, partial curve, poor fit]"}, {"compound": "Fc1ccc2c(c1)C(c1ccncc1)=NNC(c1ccccc1)=N2", "Potency": "inactive"}, {"compound": "CCOC(=O)c1c(-c2ccccc2)csc1NC(=O)c1ccc(S(=O)(=O)N2CC(C)OC(C)C2)cc1", "note": "(centres undefined)", "Potency": "inconclusive [inhibitor, full curve]"}, {"compound": "Cc1cc(C(F)(F)F)nc(SCC(=O)NC2CCCCC2)n1", "Potency": "inconclusive [inhibitor, full curve, poor fit]"}, {"compound": "O=C(NNC(=O)C1CC(=O)N(c2ccc3c(c2)OCCO3)C1)c1ccc(F)cc1", "note": "(centres undefined)", "Potency": "inconclusive [inhibitor, partial curve, poor fit]"}, {"compound": "COc1ccc(C(=O)/C=C/Nc2ccc(S(N)(=O)=O)cc2)cc1OC", "Potency": "inactive"}, {"compound": "Cn1c(NCCO)nc2c1c(=O)n(Cc1ccc(F)cc1)c(=O)n2C", "Potency": "inactive"}, {"compound": "O=C(c1cc[n+]([O-])cc1)N1CCCC(N2CCN(c3cccc(C(F)(F)F)c3)CC2)C1", "note": "(centres undefined)", "Potency": "inactive"}, {"compound": "Cc1ccc(-c2csc(=Nc3cccnc3)n2CCCn2ccnc2)cc1C", "Potency": "inconclusive [inhibitor, full curve]"}, {"compound": "CCOC(=O)CSc1nc2cc(C(=O)NCC3CCCO3)ccc2c(=O)n1Cc1ccco1", "note": "(centres undefined)", "Potency": "inconclusive [inhibitor, full curve, poor fit]"}, {"compound": "CCOC(=O)N1CCN(C(=O)C2CCCN(S(=O)(=O)c3ccc(OCC)cc3)C2)CC1", "note": "(centres undefined)", "Potency": "inconclusive [inhibitor, full curve, poor fit]"}, {"compound": "CCOc1ccccc1C(=O)Oc1cc(C)[nH]c(=O)c1[N+](=O)[O-]", "Potency": "inconclusive [inhibitor, partial curve, poor fit]"}, {"compound": "O=C1CCCN1CC(O)CS(=O)(=O)c1ccccc1", "note": "(centres undefined)", "Potency": "inconclusive [inhibitor, partial curve, poor fit]"}, {"compound": "O=C(COc1ccc(Cl)cc1)Nc1ccc2oc(-c3ccncc3)nc2c1", "Potency": "inconclusive [inhibitor, full curve, poor fit]"}, {"compound": "O=C(C1CCCCC1)N1CCN(c2nc(-c3ccc(F)cc3)cs2)CC1", "Potency": "inactive"}, {"compound": "COc1ccc(-c2[nH]n(-c3ccc([N+](=O)[O-])cc3)c(=O)c2C=NCc2ccccc2)cc1", "Potency": "inconclusive [inhibitor, full curve, poor fit]"}, {"compound": "COc1ccc(CCC(=O)NC2CCCc3ccccc32)cc1OC", "note": "(centres undefined)", "Potency": "inconclusive [inhibitor, partial curve, poor fit]"}, {"compound": "Cc1ccc(NC(=O)c2cnc(N3CCN(c4ccccn4)CC3)c3ccccc23)c(Br)c1", "Potency": "inconclusive [inhibitor, single point]"}, {"compound": "C=CCNC(=O)N1CCCC(C(=O)c2cccc(Cl)c2)C1", "note": "(centres undefined)", "Potency": "inactive"}, {"compound": "CC(=O)NC(=O)NC(C)Cc1ccccc1", "note": "(centres undefined)", "Potency": "inconclusive [inhibitor, full curve, poor fit]"}, {"compound": "Cc1ccccc1OCC(=O)NCCCNC(=O)c1ccco1", "Potency": "inconclusive [inhibitor, single point]"}, {"compound": "O=C(Cn1nnc2ccccc2c1=O)Nc1ccc2c(c1)CCC2", "Potency": "inconclusive [inhibitor, full curve, poor fit]"}, {"compound": "CC(C)CC1=NC(C(F)(F)F)(C(F)(F)F)c2c(n(CC(C)C)c(=O)[nH]c2=O)N1", "Potency": "inconclusive [inhibitor, full curve]"}, {"compound": "CCCNC(=O)c1sc2c(c1C(=O)Nc1ccccn1)CCCC2", "Potency": "inconclusive [inhibitor, full curve, poor fit]"}, {"compound": "O=C(Nc1ccccc1F)C1COc2ccccc2O1", "note": "(centres undefined)", "Potency": "inconclusive [inhibitor, full curve, poor fit]"}, {"compound": "O=c1c2ccccc2nc(-c2ccco2)n1-c1ccncc1", "Potency": "inconclusive [inhibitor, partial curve, poor fit]"}, {"compound": "O=C1c2cccnc2C(Nc2cccc(F)c2)N1Cc1ccco1", "note": "(centres undefined)", "Potency": "inactive"}, {"compound": "Cc1nn(-c2ccccn2)c2c1C(c1ccccc1Cl)C1=C(N2)c2ccccc2C1=O", "note": "(centres undefined)", "Potency": "inconclusive [inhibitor, full curve, poor fit]"}, {"compound": "O=c1c2c(ncn2C2CCCC2)n(Cc2ccccc2)c(=O)n1CCOc1ccc(Br)cc1", "Potency": "inactive"}, {"compound": "CCOC(=O)c1[nH]c(C)c(CCC(=O)NCc2ccc(OC)cc2)c1C", "Potency": "inactive"}, {"compound": "CCOc1ccc(C(C)=O)cc1CSc1nnnn1-c1ccc(O)cc1", "Potency": "inconclusive [inhibitor, partial curve, poor fit]"}, {"compound": "O=C(NCc1ccc(F)cc1)c1ccc2c(c1)nnn2C1CCCC1", "Potency": "inactive"}, {"compound": "COc1ccc(-n2c(O)c(C(C)=NCCc3c[nH]c4ccccc34)c(=O)[nH]c2=O)cc1", "Potency": "inactive"}, {"compound": "O=C(Nc1ccc(S(=O)(=O)NCc2ccccc2)cc1)c1ccc(Br)o1", "Potency": "inconclusive [inhibitor, full curve, poor fit]"}, {"compound": "CCOC(=O)c1noc2nc(C)n(Cc3cccc(C#N)c3)c(=O)c12", "Potency": "inactive"}, {"compound": "CNCC[C@H](Oc1ccc(C(F)(F)F)cc1)c1ccccc1", "Potency": "inconclusive [inhibitor, full curve, poor fit]"}, {"compound": "COc1ccc(C(=O)C(C)Sc2nnc(C3CC3)n2C2CC2)cc1", "note": "(centres undefined)", "Potency": "inconclusive [inhibitor, single point]"}, {"compound": "CC(C)(C)NC(=O)NC(=O)COC(=O)c1cccc(NS(=O)(=O)c2ccc(F)c(F)c2)c1", "Potency": "inactive"}, {"compound": "O=C(N/N=C\\c1ccc([N+](=O)[O-])s1)c1cncc(Br)c1", "Potency": "inconclusive [inhibitor, full curve, poor fit]"}, {"compound": "CC(=O)c1ccc(NC(=O)C2CCC(CNS(=O)(=O)c3cccs3)CC2)cc1", "note": "(centres undefined)", "Potency": "inactive"}, {"compound": "COc1cccc(Cc2nc3ccccc3nc2SCC(=O)NCc2ccc(C)cc2)c1", "Potency": "inactive"}, {"compound": "Oc1c(CN2CCc3ccccc3C2)cc(Cl)c2cccnc12", "Potency": "inconclusive [inhibitor, full curve, poor fit]"}, {"compound": "COC(=O)c1cc(-c2ccc(S(=O)(=O)N3CCCC3)cc2)c(C(F)(F)F)s1", "Potency": "inactive"}, {"compound": "C=CCn1c(NC(=O)CC)c(C(=O)OCC)sc1=S", "Potency": "inconclusive [inhibitor, partial curve]"}, {"compound": "CCOc1ccc(NS(=O)(=O)c2ccc(NC(=S)NC(=O)C(C)C)cc2)cc1", "Potency": "inconclusive [inhibitor, single point]"}, {"compound": "CC(C)N(Cc1nc(-c2ccc(Cl)cc2)no1)C(=O)/C=C/c1ccccc1", "Potency": "inconclusive [inhibitor, full curve, poor fit]"}, {"compound": "COc1ccc2c(c1OC)C(=O)OC2Nc1ncccc1C", "note": "(centres undefined)", "Potency": "inconclusive [inhibitor, full curve, poor fit]"}, {"compound": "Cc1ccc(NC(=O)CN2CCc3ccccc3C2)cc1S(=O)(=O)N(C)C", "Potency": "inconclusive [inhibitor, full curve, poor fit]"}, {"compound": "COc1cc(-n2nnnc2SCC(=O)N2CCN(c3ccc(F)cc3)CC2)c(OC)cc1Cl", "Potency": "inconclusive [inhibitor, full curve, poor fit]"}, {"compound": "Cc1ccccc1N(C(=O)CNC(=O)c1ccco1)C(C(=O)NC1CCCC1)c1ccncc1", "note": "(centres undefined)", "Potency": "inconclusive [inhibitor, full curve, poor fit]"}, {"compound": "COCCn1c(=NC(=O)CCS(=O)(=O)c2ccccc2)sc2cc(C(=O)OC)ccc21", "Potency": "inconclusive [inhibitor, single point]"}, {"compound": "CCCCn1c(CNC(=O)C23CC4CC(CC(C4)C2)C3)nnc1SCC(=O)Nc1nnc(C)s1", "Potency": "inconclusive [inhibitor, partial curve, poor fit]"}, {"compound": "COc1cccc(C2NC(=O)c3ccccc3O2)c1OC", "note": "(centres undefined)", "Potency": "inactive"}]}]}
